According to PubChem BioAssay AID488969 (Vanderbilt High Throughput Screening Facility, 2010):
The full ranking holds about 110,000 compounds; the median of “z-score” is about -0.1, and the highest 2% start at about 2. The list shows a part of the results.

Biological target: Metabotropic glutamate receptor 8 (Rattus norvegicus) (UniProt P70579)
Assay: mGluR8 Gi/Go-coupled signaling modulation – cell-based, rat, thallium flux, HTS, primary screen (AID 488969)
Settings: HEK293 rat mGluR8, GIRK (G protein-gated inwardly rectifying potassium channel) thallium flux, FluoZin2; at 10 µM; stronger effect = higher value; submaximal glutamate (EC20) added with thallium

Sequence of UniProt P70579 (P70579 whole entry, looked up): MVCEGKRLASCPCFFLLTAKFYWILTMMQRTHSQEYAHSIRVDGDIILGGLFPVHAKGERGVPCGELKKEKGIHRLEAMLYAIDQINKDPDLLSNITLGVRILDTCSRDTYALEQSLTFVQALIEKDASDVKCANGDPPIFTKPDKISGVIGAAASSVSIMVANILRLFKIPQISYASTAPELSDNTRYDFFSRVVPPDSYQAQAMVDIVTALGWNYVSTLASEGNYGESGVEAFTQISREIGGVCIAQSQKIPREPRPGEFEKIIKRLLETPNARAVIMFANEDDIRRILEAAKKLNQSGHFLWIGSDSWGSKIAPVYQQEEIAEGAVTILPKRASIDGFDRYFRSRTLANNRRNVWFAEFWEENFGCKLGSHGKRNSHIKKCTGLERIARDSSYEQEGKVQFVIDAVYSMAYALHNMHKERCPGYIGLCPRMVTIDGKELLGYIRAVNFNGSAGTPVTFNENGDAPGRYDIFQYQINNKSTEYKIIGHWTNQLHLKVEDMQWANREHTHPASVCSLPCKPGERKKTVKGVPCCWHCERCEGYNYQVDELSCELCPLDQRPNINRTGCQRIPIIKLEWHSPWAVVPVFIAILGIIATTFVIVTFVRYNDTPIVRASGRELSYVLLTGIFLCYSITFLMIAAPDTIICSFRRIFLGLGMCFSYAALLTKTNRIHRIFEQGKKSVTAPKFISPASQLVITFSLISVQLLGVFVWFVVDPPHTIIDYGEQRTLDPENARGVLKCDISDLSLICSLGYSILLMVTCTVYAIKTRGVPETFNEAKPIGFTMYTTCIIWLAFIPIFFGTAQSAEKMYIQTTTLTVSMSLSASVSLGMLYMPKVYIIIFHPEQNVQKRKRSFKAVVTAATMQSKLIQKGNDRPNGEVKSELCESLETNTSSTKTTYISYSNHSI

| Structure (SMILES) | z-score |
| --- | --- |
| CC(=O)c1cccc(NC(=O)c2ccc(N(Cc3ccc(C)cc3)S(C)(=O)=O)cc2)c1 | -0.0293 |
| O=C(CSc1ccccn1)N/N=C/c1ccccc1[N+](=O)[O-] | -0.375 |
| C=CCn1c(SCCOc2ccc(OC)cc2)nnc1C(C)NC(=O)Cc1ccc(OC)cc1 (centres undefined) | -0.528 |
| c1ccc(-c2nnc(CSc3nnc(-c4ccncc4)n3Cc3ccco3)o2)cc1 | -0.127 |
| O=C(NC1CCCCCC1)C1C2C=CC3(CN(Cc4cccnc4)C(=O)C13)O2 (centres undefined) | 0.211 |
| COc1ccc2c(c1)c1ccccc1n2C | -0.77 |
| CCOC(=O)c1ccc2nc(Nc3nc4ccc(F)cc4s3)sc2c1 | 0.363 |
| CCOc1cc(NC(=O)C2CCCO2)c(OCC)cc1NC(C)=O (centres undefined) | 0.115 |
| CCOC(=O)N1CCN(C(=O)Cc2ccc(-n3c(=S)[nH]c4ccccc4c3=O)cc2)CC1 | -0.69 |
| COc1ccc(NS(=O)(=O)c2ccc(NC(=O)c3ccc(N(C)S(C)(=O)=O)cc3)cc2)c(OC)c1 | -0.141 |
| CCOC(=O)c1cccc(NC(=O)c2ccc(N(C)C)cc2)c1 | -1.1 |
| CN(C)S(=O)(=O)c1ccc(/C(O)=C2/C(=O)C(=O)N(Cc3cccnc3)C2c2ccncc2)cc1 (centres undefined) | 0.122 |
| CCOC(=O)c1sc2ccccc2c1OC(=O)c1ccccc1OC | -0.0231 |
| CCOc1ccccc1NC(=O)Cn1c(=O)c2ccccc2n(CC)c1=O | -0.35 |
| CCOC(=O)CNC(=O)CSc1nnc(-c2ccco2)n1Cc1ccco1 | 0.612 |
| COC(=O)c1c(NC(=O)CSc2nc3ccccc3c(=O)n2Cc2ccco2)sc(C)c1C | 0.969 |
| CCN(CCO)Cc1cc(=O)oc2c(C)c(C)ccc12 | 0.543 |
| O=C(c1ccccc1)N1CCC(O)(c2cccnc2)CC1 | -0.0866 |
| CCCc1nc2c(c(=O)c3ccccc3n2C)c(=O)n1C1CCCCCC1 | -0.719 |
| COc1cc(C)c(/C=C(\C#N)C(=O)Nc2cccc(C)c2)cc1C(C)C | -0.021 |
| CSCCC(NC(=O)c1ccc(Cl)cc1)C(=O)NC(C)(C)C (centres undefined) | -0.119 |
| O=C(NCC(=O)N(CCN1CCOCC1)C(C(=O)NC1CCCC1)c1cccs1)c1ccco1 (centres undefined) | -0.231 |

| Structure (SMILES) | z-score |
| --- | --- |
| O=C(CCCNC(=O)/C(=C/c1ccc(Br)cc1)NC(=O)c1ccccc1)OCc1ccccc1 | -2.26 |
| COc1ccc(CCN2C(=O)CCC2(C)C(=O)NCc2cccnc2)cc1OC (centres undefined) | -0.282 |
| CSc1ccc(/C=N/NC(=O)c2cc(O)cc(O)c2)cc1 | -0.318 |
| CCOC(=O)c1sc(NC(=O)c2ccco2)nc1-c1ccccc1 | 0.0322 |
| CCc1ccc(NC(=S)N2CCN(c3cccc(C(F)(F)F)c3)CC2)cc1 | -0.054 |
| COCCN(C(=O)c1ccco1)c1nnc(-c2ccc(OC)c(OC)c2)s1 | 0.0431 |
| CCOC(=O)N1CCN(C(=O)C2CCN(Cc3cccc(OCc4ccccc4)c3)CC2)CC1 | 0.0228 |
| Cc1nc2c(-c3ccccc3)c(C)nn2c(N)c1-c1ccccc1 | -0.203 |
| CCc1ccc(NC(=O)C2(c3ccccc3)CC2(Cl)Cl)cc1 (centres undefined) | -0.0619 |
| CC(=O)Nc1ccc(S(=O)(=O)N2CCC(NC(=O)C(Cc3cccn3C)NC(C)=O)CC2)cc1 (centres undefined) | 0.29 |
| CC(NC(=S)Nc1ccccc1Cl)C(c1cccs1)N1CCCC1 (centres undefined) | 0.0771 |
| CC1=NOC(=O)/C1=C\c1ccc(-c2cccc(Cl)c2)o1 | -0.949 |
| O=C(Nc1cc(S(=O)(=O)Nc2ccc(Cl)cc2)ccc1N1CCCCC1)c1ccc(F)cc1 | -0.239 |
| Cc1cccc(OCC(=O)Nc2ccc3c(c2)OCCO3)c1 | -0.167 |
| Cc1cc(NC(=O)Nc2ccc(F)cc2)no1 | -0.8 |
| COc1ccc(C2Nc3ccccc3C(=O)N2Cc2ccccc2)cc1CSc1ccccn1 (centres undefined) | -0.275 |
| Cc1ccc(S(=O)(=O)Nc2ccc(Br)cc2/C=N/n2cnnc2)cc1 | -0.433 |
| Cc1cc(NC(=O)CCc2ccc(S(=O)(=O)N3CCOCC3)cc2)n(-c2ccccc2)n1 | 0.97 |
| CCOC(=O)c1cc(-c2ccc(OC)cc2F)nc2c1c(C)nn2CCC#N | -0.177 |
| C=CCOc1ccc(C2/C(=C(\O)c3c(C)[nH]c(C(=O)OC)c3C)C(=O)C(=O)N2CCN(C)C)cc1 (centres undefined) | 0.0791 |
| Cc1ccnn2cc3c(=O)n(C)c(=O)n(C)c3c12 | -0.231 |
| O=C(NNc1cc(N2CCOCC2)nc(N2CCOCC2)n1)C12CC3CC(CC(C3)C1)C2 | 0.223 |

| Structure (SMILES) | z-score |
| --- | --- |
| CCCCCn1c(CN2CCCCC2C)nc2c1c(=O)n(C)c(=O)n2C (centres undefined) | -0.252 |
| COc1ccc(C(=O)NNC(=O)c2ccccc2[N+](=O)[O-])cc1 | -0.0219 |
| O=C(CN1C(=O)NC2(CCSC2)C1=O)N1CCN(c2ccc(F)cc2)CC1 (centres undefined) | 0.503 |
| CC1=CC(C)(C)Nc2cc(C)c(C)cc21 | -0.0982 |
| C/C=C/c1c(F)c(F)c(Oc2ccc(C(=O)O)cc2)c(F)c1F | -0.0372 |
| Cc1cc2ccccc2n1CCNC(=O)COc1ccc2ccccc2c1 | 0.11 |
| COc1ccc(OC)c(Nc2ncnc3c2cnn3-c2cccc(C)c2)c1 | 0.488 |
| CNC(=S)N/N=C(\C)c1ccc(-n2ccnc2)cc1 | -0.579 |
| Cc1ccc(/C=N/n2c(C)nnc2C)cc1 | -0.418 |
| Cc1ccc(SCC(=O)Nc2ccc(N3CCN(C)CC3)c(F)c2)cc1 | 0.01 |
| Cn1nnc2cc(C(=O)N3CCN(c4ccccc4)CC3)ccc21 | 0.231 |
| CC(C)=CCC/C(C)=C/CCC(C)NCCN1CCNCC1 (centres undefined) | 1.32 |
| CCC(=NCCc1c(C)[nH]c2ccc(C)cc12)C1=C(O)CC(c2ccccc2)CC1=O (centres undefined) | 0.969 |
| CCNc1nc(Cl)nc(NNC(=O)C(C)Oc2ccccc2)n1 (centres undefined) | -0.658 |
| Cc1ccc(NCCC#N)cc1C | -0.0143 |
| O=[N+]([O-])c1ccc(N(c2ccccc2)c2ccccc2)cc1 | -1.59 |
| COC(=O)c1cc(NC(=O)C23CCC(C)(C(=O)O2)C3(C)C)cc(C(=O)OC)c1 (centres undefined) | 0.577 |
| COc1cccc(C(=O)Nc2cccnc2)c1 | -0.141 |
| N#CC1=C(N)Oc2n[nH]c(-c3cccs3)c2C1C1C=CCCC1 (centres undefined) | -0.18 |
| Cc1cc(N(CCO)CCO)ccc1C(c1ccc(N(CCO)CCO)cc1C)c1ccccc1Cl | -0.374 |
| O=C(CN1CCN(Cc2cccc(Cl)c2)C1=O)NCc1ccccn1 | 0.34 |
| Cc1cc(C(=O)Nc2c(C)n(C)n(-c3ccccc3)c2=O)on1 | -0.0853 |

| Structure (SMILES) | z-score |
| --- | --- |
| CCC1S/C(=C(\C#N)C(=O)NCc2ccco2)N(c2ccc(F)cc2)C1=O (centres undefined) | -1.25 |
| FC(F)(F)c1cnc(Oc2ccc(-c3nnco3)cc2)c(Cl)c1 | -0.503 |
| CSc1nc(NCC(C)C)c2c3c(sc2n1)CN(C)CC3 | 0.139 |
| CN1CC(=O)Nc2ccc(F)cc2C1=O | 0.186 |
| COC(=O)c1ccc(C(=O)OC)c(NC(=O)C2CC2)c1 | -0.199 |
| Cc1ccc(NC(=O)CSc2nccn2C)cc1S(=O)(=O)N1CCOCC1 | 1.53 |
| Clc1ccccc1CO/N=C1\CCCc2nonc21 | -0.417 |
| CCC1CC(CSc2ncn[nH]2)OC1=O (centres undefined) | -0.145 |
| O=c1nc2ccccc2c2n1CC(CN1CCN(c3ccc(F)cc3)CC1)N2 (centres undefined) | -0.473 |
| O=C(N/N=C/C(Br)=C\c1ccccc1)c1ccc2nc[nH]c2c1 | 0.472 |
| Cc1cc(C)nc(N2N=C(C(C)(C)C)CC2=O)n1 | -0.168 |
| N#Cc1ccc(N2CCCC2C(=O)O)c([N+](=O)[O-])c1 (centres undefined) | -0.206 |
| CCN(CCCNC(=O)C1CCN(S(=O)(=O)N2CCOCC2)CC1)c1cccc(C)c1 | 0.808 |
| O=C(CSC1=NCCS1)Nc1nc2ccccc2s1 | -0.264 |
| CN1CCN(CCCNC(=O)C2CC(=O)N(C3CCCCC3)C2)CC1 (centres undefined) | -0.351 |
| CCOC(=O)C1CCCN(C2CC(=O)N(c3ccc(C)c(C)c3)C2=O)C1 (centres undefined) | -1.32 |
| CCC(=O)Nc1cccc(NC(=O)CSc2nnc(-c3ccc(NS(C)(=O)=O)cc3)n2C)c1 | -0.39 |
| CCc1ccc(OCCCC(=O)NCc2ccccc2)cc1 | -0.572 |
| CN(C)c1ccc(NC(=O)c2cn(-c3ccccc3)nc2-c2cccs2)cc1 | 0.431 |
| CCOC(=O)c1cnc(SCc2nc(N)nc(Nc3ccc(C)cc3)n2)nc1N | -0.106 |
| Cc1cccc(Sc2nc(-c3ccccc3)ccc2C#N)c1 | 0.296 |
| Cc1cc(C)c(C#N)c(SCc2ccc(C#N)cc2)n1 | 0.177 |

| Structure (SMILES) | z-score |
| --- | --- |
| O=C(O)C1CC=C(Cl)CC1C(=O)NCc1ccccc1 (centres undefined) | -0.00639 |
| FC(F)(F)COc1nc(N2CCCCC2)nc(N2CCNCC2)n1 | 2.6 |
| CCC(C)C(NC(=O)C1CCC(C)CC1)C(=O)Nc1cc(OC)ccc1OC (centres undefined) | -0.422 |
| O=[N+]([O-])c1ccccc1S(=O)(=O)Oc1ccccc1/C=N/n1cnnc1 | -0.648 |
| N#Cc1c(-c2ccccc2)ccn(Cc2cccc(Cl)c2)c1=O | -0.115 |
| CC(=O)NS(=O)(=O)c1ccc(NC(=O)c2cc(-c3ccc(C)cc3)nc3ccccc23)cc1 | -0.253 |
| O=C(C1CCC(C(=O)N2CCCCC2)CC1)N1CCCCC1 (centres undefined) | 0.0509 |
| Cn1nc(-c2ccc(OCC(N)=O)cc2)c2ccccc2c1=O | -0.0429 |
| CCC(=O)NC(=S)Nc1ccccc1OC | -0.0141 |
| Cc1ccc(CNC(=O)c2ccc3nc4[nH]c5ccccc5c4nc3c2)cc1 | -0.472 |
| Cc1cccc(N(CC(=O)NC2CCCC2)C(=O)CCCC(=O)Nc2ccccn2)c1 | 0.15 |
| CCOC(=O)N1CCC(Nc2c(-c3ccccc3)c(=O)c2=O)CC1 | -0.162 |
| COc1ccc(NC(=O)COC(=O)[C@@H]2CCCN2C(=O)c2cccs2)c(OC)c1 | -0.344 |
| COC(=O)C(C(=O)NCC1CCCO1)C1CCCC1 (centres undefined) | -0.0779 |
| O=C(CCc1ccc(S(=O)(=O)NCc2ccccc2)cc1)NCc1ccc2c(c1)OCO2 | -0.337 |
| Cc1cccc(OCCSc2nc3c([nH]2)c(=N)ncn3Cc2ccccc2)c1 | -0.0916 |
| Cc1cccc(C)c1NC(=O)CSc1nnc(CCCCCNC(=O)OC(C)(C)C)o1 | 0.47 |
| O=C(NCc1ccccn1)C1CCN(S(=O)(=O)N2CCCCC2)CC1 | 0.621 |
| C/C(=C\C(=O)c1ccccc1)NCc1ccc(F)cc1 | -0.549 |
| C(=N\Nc1nc(Nc2ccccc2)nc(N2CCOCC2)n1)/c1c[nH]c2ccccc12 | -0.368 |
| CCOC(=O)c1c(NC(=O)C(C)N2CCN(S(=O)(=O)c3cccs3)CC2)sc2c1CCC(C)C2 (centres undefined) | 0.49 |
